Source: the supplement of paper PMC8728848
This is one part of the list.

How the values were obtained:
Test in all cases: glycan array binding signal (z-score within array); higher = stronger binding
Conditions in all cases: glycan notation: IUPAC condensed, linker removed
[1] = target: GlcNAc(b1-2)[GlcNAc(b1-4)]Man(a1-3)[GlcNAc(b1-2)[GlcNAc(b1-6)]Man(a1-6)]Man(b1-4)GlcNAc(b1-4)GlcNAc
In short: (§1)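 The Consortium for Functional Glycomics database supplied 3228 glycan arrays, of which those lacking an available protein sequence were dropped. The binding signal, a within-array Z-score, was averaged across arrays of the same protein sequence and across linkers. Negative scores can be read as non-binding.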

[2] = target: GlcNAc(b1-2)[GlcNAc(b1-4)]Man(a1-3)[GlcNAc(b1-4)][GlcNAc(b1-2)Man(a1-6)]Man(b1-4)GlcNAc(b1-4)GlcNAc
In short: as §1

[3] = target: GlcNAc(b1-2)[GlcNAc(b1-4)]Man(a1-3)[GlcNAc(b1-4)][GlcNAc(b1-2)[GlcNAc(b1-6)]Man(a1-6)]Man(b1-4)GlcNAc(b1-4)GlcNAc
In short: as §1

[4] = target: GlcNAc(b1-2)[GlcNAc(b1-4)]Man(a1-3)[GlcNAc(b1-4)][GlcNAc(b1-2)[GlcNAc(b1-6)]Man(a1-6)]Man(b1-4)GlcNAc(b1-4)[Fuc(a1-6)]GlcNAc
In short: as §1

[5] = target: GlcNAc(b1-2)[GlcNAc(b1-6)]Man(a1-6)[GlcNAc(b1-2)Man(a1-3)]Man(b1-4)GlcNAc(b1-4)GlcNAc
In short: as §1

[6] = target: GlcNAc(b1-2)[GlcNAc(b1-6)]Man(a1-6)[GlcNAc(b1-2)Man(a1-3)]Man(b1-4)GlcNAc(b1-4)[Fuc(a1-6)]GlcNAc
In short: as §1

[7] = target: GlcNAc(b1-2)[GlcNAc(b1-6)]Man(a1-6)[GlcNAc(b1-2)Man(a1-3)][GlcNAc(b1-4)]Man(b1-4)GlcNAc(b1-4)GlcNAc
In short: as §1

[8] = target: GlcNAc(b1-2)[GlcNAc(b1-6)]Man(a1-6)[GlcNAc(b1-4)][GlcNAc(b1-2)Man(a1-3)]Man(b1-4)GlcNAc(b1-4)GlcNAc
In short: as §1

GlcNAc(b1-3)Fuc = target: GlcNAc(b1-3)Fuc
In short: as §1

GlcNAc(b1-3)Gal = target: GlcNAc(b1-3)Gal
In short: as §1

[9] = target: GlcNAc(b1-3)Gal(b1-3)GalNAc
In short: as §1

GlcNAc(b1-3)Gal(b1-4)Glc = target: GlcNAc(b1-3)Gal(b1-4)Glc
In short: as §1

[10] = target: GlcNAc(b1-3)Gal(b1-4)GlcNAc
In short: as §1

[11] = target: GlcNAc(b1-3)Gal(b1-4)GlcNAc(b1-2)Man(a1-3)[GlcNAc(b1-3)Gal(b1-4)GlcNAc(b1-2)Man(a1-6)]Man(b1-4)GlcNAc(b1-4)GlcNAc
In short: as §1

[12] = target: GlcNAc(b1-3)Gal(b1-4)GlcNAc(b1-2)Man(a1-3)[GlcNAc(b1-3)Gal(b1-4)GlcNAc(b1-2)Man(a1-6)]Man(b1-4)GlcNAc(b1-4)[Fuc(a1-6)]GlcNAc
In short: as §1

[13] = target: GlcNAc(b1-3)Gal(b1-4)GlcNAc(b1-2)[GlcNAc(b1-3)Gal(b1-4)GlcNAc(b1-6)]Man(a1-6)[GlcNAc(b1-3)Gal(b1-4)GlcNAc(b1-2)Man(a1-3)]Man(b1-4)GlcNAc(b1-4)GlcNAc
In short: as §1

[14] = target: GlcNAc(b1-3)Gal(b1-4)GlcNAc(b1-3)Gal(b1-4)GlcNAc
In short: as §1

[15] = target: GlcNAc(b1-3)Gal(b1-4)GlcNAc(b1-3)Gal(b1-4)GlcNAc(b1-2)Man(a1-3)[GlcNAc(b1-3)Gal(b1-4)GlcNAc(b1-3)Gal(b1-4)GlcNAc(b1-2)Man(a1-6)]Man(b1-4)GlcNAc(b1-4)GlcNAc
In short: as §1

[16] = target: GlcNAc(b1-3)Gal(b1-4)GlcNAc(b1-3)Gal(b1-4)GlcNAc(b1-2)Man(a1-3)[GlcNAc(b1-3)Gal(b1-4)GlcNAc(b1-3)Gal(b1-4)GlcNAc(b1-2)Man(a1-6)]Man(b1-4)GlcNAc(b1-4)[Fuc(a1-6)]GlcNAc
In short: as §1

[17] = target: GlcNAc(b1-3)Gal(b1-4)GlcNAc(b1-3)Gal(b1-4)GlcNAc(b1-2)[GlcNAc(b1-3)Gal(b1-4)GlcNAc(b1-3)Gal(b1-4)GlcNAc(b1-6)]Man(a1-6)[GlcNAc(b1-3)Gal(b1-4)GlcNAc(b1-3)Gal(b1-4)GlcNAc(b1-2)Man(a1-3)]Man(b1-4)GlcNAc(b1-4)[Fuc(a1-6)]GlcNAc
In short: as §1

[18] = target: GlcNAc(b1-3)Gal(b1-4)GlcNAc(b1-3)Gal(b1-4)GlcNAc(b1-3)Gal(b1-4)GlcNAc(b1-2)Man(a1-3)[GlcNAc(b1-3)Gal(b1-4)GlcNAc(b1-3)Gal(b1-4)GlcNAc(b1-3)Gal(b1-4)GlcNAc(b1-2)Man(a1-6)]Man(b1-4)GlcNAc(b1-4)GlcNAc
In short: as §1

[19] = target: GlcNAc(b1-3)Gal(b1-4)GlcNAc(b1-3)Gal(b1-4)GlcNAc(b1-3)Gal(b1-4)GlcNAc(b1-2)Man(a1-3)[GlcNAc(b1-3)Gal(b1-4)GlcNAc(b1-3)Gal(b1-4)GlcNAc(b1-3)Gal(b1-4)GlcNAc(b1-2)Man(a1-6)]Man(b1-4)GlcNAc(b1-4)[Fuc(a1-6)]GlcNAc
In short: as §1

[20] = target: GlcNAc(b1-3)Gal(b1-4)GlcNAc(b1-3)Gal(b1-4)GlcNAc(b1-3)Gal(b1-4)GlcNAc(b1-2)[GlcNAc(b1-3)Gal(b1-4)GlcNAc(b1-3)Gal(b1-4)GlcNAc(b1-3)Gal(b1-4)GlcNAc(b1-6)]Man(a1-6)[GlcNAc(b1-3)Gal(b1-4)GlcNAc(b1-3)Gal(b1-4)GlcNAc(b1-3)Gal(b1-4)GlcNAc(b1-2)Man(a1-3)]Man(b1-4)GlcNAc(b1-4)[Fuc(a1-6)]GlcNAc
In short: as §1

[21] = target: GlcNAc(b1-3)Gal(b1-4)GlcNAc(b1-3)Gal(b1-4)GlcNAc(b1-3)Gal(b1-4)GlcNAc(b1-3)Gal(b1-4)GlcNAc(b1-2)Man(a1-3)[GlcNAc(b1-3)Gal(b1-4)GlcNAc(b1-3)Gal(b1-4)GlcNAc(b1-3)Gal(b1-4)GlcNAc(b1-3)Gal(b1-4)GlcNAc(b1-2)Man(a1-6)]Man(b1-4)GlcNAc(b1-4)GlcNAc
In short: as §1

[22] = target: GlcNAc(b1-3)Gal(b1-4)GlcNAc(b1-3)Gal(b1-4)GlcNAc(b1-3)Gal(b1-4)GlcNAc(b1-3)Gal(b1-4)GlcNAc(b1-2)Man(a1-3)[GlcNAc(b1-3)Gal(b1-4)GlcNAc(b1-3)Gal(b1-4)GlcNAc(b1-3)Gal(b1-4)GlcNAc(b1-3)Gal(b1-4)GlcNAc(b1-2)Man(a1-6)]Man(b1-4)GlcNAc(b1-4)[Fuc(a1-6)]GlcNAc
In short: as §1

[23] = target: GlcNAc(b1-3)Gal(b1-4)GlcNAc(b1-3)Gal(b1-4)GlcNAc(b1-3)Gal(b1-4)GlcNAc(b1-3)Gal(b1-4)GlcNAc(b1-2)[GlcNAc(b1-3)Gal(b1-4)GlcNAc(b1-3)Gal(b1-4)GlcNAc(b1-3)Gal(b1-4)GlcNAc(b1-3)Gal(b1-4)GlcNAc(b1-6)]Man(a1-6)[GlcNAc(b1-3)Gal(b1-4)GlcNAc(b1-3)Gal(b1-4)GlcNAc(b1-3)Gal(b1-4)GlcNAc(b1-3)Gal(b1-4)GlcNAc(b1-2)Man(a1-3)]Man(b1-4)GlcNAc(b1-4)[Fuc(a1-6)]GlcNAc
In short: as §1

[24] = target: GlcNAc(b1-3)Gal(b1-4)GlcNAc(b1-3)Gal(b1-4)GlcNAc(b1-3)GalNAc
In short: as §1

[25] = target: GlcNAc(b1-3)Gal(b1-4)GlcNAc(b1-3)GalNAc
In short: as §1

[26] = target: GlcNAc(b1-3)Gal(b1-4)GlcNAc(b1-3)[GlcNAc(b1-3)Gal(b1-4)GlcNAc(b1-3)]GalNAc
In short: as §1

[27] = target: GlcNAc(b1-3)Gal(b1-4)GlcNAc(b1-6)[Gal(b1-3)]GalNAc
In short: as §1

[28] = target: GlcNAc(b1-3)Gal(b1-4)GlcNAc(b1-6)[GlcNAc(b1-3)Gal(b1-3)]GalNAc
In short: as §1

[29] = target: GlcNAc(b1-3)Gal(b1-4)GlcNAc(b1-6)[GlcNAc(b1-3)]Gal(b1-4)GlcNAc
In short: as §1

GlcNAc(b1-3)GalNAc = target: GlcNAc(b1-3)GalNAc
In short: as §1

GlcNAc(b1-3)Man = target: GlcNAc(b1-3)Man
In short: as §1

[30] = target: GlcNAc(b1-3)[GlcNAc(b1-4)][GlcNAc(b1-6)]GlcNAc
In short: as §1

[31] = target: GlcNAc(b1-3)[GlcNAc(b1-6)]Gal
In short: as §1

[32] = target: GlcNAc(b1-3)[GlcNAc(b1-6)]Gal(b1-4)GlcNAc
In short: as §1

B1: PNA (Arachis hypogaea), P02872 (protein)
chain: MKPFCVFLTFFLLLAASSKKVDSAETVSFNFNSFSEGNPAINFQGDVTVLSNGNIQLTNLNKVNSVGRVLYAMPVRIWSSATGNVASFLTSFSFEMKDIKDYDPADGIIFFIAPEDTQIPAGSIGGGTLGVSDTKGAGHFVGVEFDTYSNSEYNDPPTDHVGIDVNSVDSVKTVPWNSVSGAVVKVTVIYDSSTKTLSVAVTNDNGDITTIAQVVDLKAKLPERVKFGFSASGSLGGRQIHLIRSWSFTSTLITTTRRSIDNNEKKIMNMASA
- glycan array binding signal (z-score) [1]: 1.9
- glycan array binding signal (z-score) [2]: -0.195
- glycan array binding signal (z-score) [3]: -0.288
- glycan array binding signal (z-score) [4]: -0.309
- glycan array binding signal (z-score) [5]: -0.171
- glycan array binding signal (z-score) [6]: -0.234
- glycan array binding signal (z-score) [7]: -0.103
- glycan array binding signal (z-score) [8]: -0.151
- glycan array binding signal (z-score) (GlcNAc(b1-3)Fuc): -0.218
- glycan array binding signal (z-score) (GlcNAc(b1-3)Gal): -0.192
- glycan array binding signal (z-score) [9]: -0.203
- glycan array binding signal (z-score) (GlcNAc(b1-3)Gal(b1-4)Glc): -0.081
- glycan array binding signal (z-score) [10]: -0.145
- glycan array binding signal (z-score) [11]: 0.227
- glycan array binding signal (z-score) [12]: 0.22
- glycan array binding signal (z-score) [13]: 0.663
- glycan array binding signal (z-score) [14]: -0.096
- glycan array binding signal (z-score) [15]: 0.821
- glycan array binding signal (z-score) [16]: 0.509
- glycan array binding signal (z-score) [17]: 1.3
- glycan array binding signal (z-score) [18]: 0.851
- glycan array binding signal (z-score) [19]: 0.774
- glycan array binding signal (z-score) [20]: 1.79
- glycan array binding signal (z-score) [21]: 0.957
- glycan array binding signal (z-score) [22]: 0.999
- glycan array binding signal (z-score) [23]: 1.96
- glycan array binding signal (z-score) [24]: -0.187
- glycan array binding signal (z-score) [25]: -0.322
- glycan array binding signal (z-score) [26]: -0.006
- glycan array binding signal (z-score) [27]: 5.04
- glycan array binding signal (z-score) [28]: -0.239
- glycan array binding signal (z-score) [29]: 0.932
- glycan array binding signal (z-score) (GlcNAc(b1-3)GalNAc): -0.154
- glycan array binding signal (z-score) (GlcNAc(b1-3)Man): -0.153
- glycan array binding signal (z-score) [30]: -0.225
- glycan array binding signal (z-score) [31]: -0.195
- glycan array binding signal (z-score) [32]: 0.285
